# Some of the results follow.
# How the values were obtained:
# Assay in all cases: glycan array binding signal (z-score within array); higher = stronger binding
# Details in all cases: glycan notation: IUPAC condensed, linker removed
# [1] = target: Neu5Ac(a2-3)Gal(b1-4)GlcNAc(b1-6)GalNAc
# Procedure, shortened: (§1)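 The Consortium for Functional Glycomics database supplied 3228 glycan arrays, of which those lacking an available protein sequence were dropped. The binding signal, a within-array Z-score, was averaged across arrays of the same protein sequence and across linkers. Negative scores can be read as non-binding.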
# [2] = target: Neu5Ac(a2-3)Gal(b1-4)GlcNAc(b1-6)[Gal(b1-3)]GalNAc
# Procedure, shortened: as §1
# [3] = target: Neu5Ac(a2-3)Gal(b1-4)GlcNAc(b1-6)[Neu5Ac(a2-3)Gal(b1-3)]GalNAc
# Procedure, shortened: as §1
# [4] = target: Neu5Ac(a2-3)Gal(b1-4)GlcNAc6S
# Procedure, shortened: as §1
# [5] = target: Neu5Ac(a2-3)Gal(b1-4)[Fuc(a1-3)]GlcNAc
# Procedure, shortened: as §1
# [6] = target: Neu5Ac(a2-3)Gal(b1-4)[Fuc(a1-3)]GlcNAc(b1-2)Man
# Procedure, shortened: as §1
# [7] = target: Neu5Ac(a2-3)Gal(b1-4)[Fuc(a1-3)]GlcNAc(b1-3)Gal
# Procedure, shortened: as §1
# [8] = target: Neu5Ac(a2-3)Gal(b1-4)[Fuc(a1-3)]GlcNAc(b1-3)Gal(b1-4)GlcNAc
# Procedure, shortened: as §1
# [9] = target: Neu5Ac(a2-3)Gal(b1-4)[Fuc(a1-3)]GlcNAc(b1-3)Gal(b1-4)[Fuc(a1-3)]GlcNAc(b1-3)Gal(b1-4)[Fuc(a1-3)]GlcNAc
# Procedure, shortened: as §1
# [10] = target: Neu5Ac(a2-3)Gal(b1-4)[Fuc(a1-3)]GlcNAc(b1-3)GalNAc
# Procedure, shortened: as §1
# [11] = target: Neu5Ac(a2-3)Gal(b1-4)[Fuc(a1-3)]GlcNAc(b1-6)[Gal(b1-3)]GalNAc
# Procedure, shortened: as §1
# [12] = target: Neu5Ac(a2-3)Gal(b1-4)[Fuc(a1-3)]GlcNAc(b1-6)[Neu5Ac(a2-3)Gal(b1-3)]GalNAc
# Procedure, shortened: as §1
# [13] = target: Neu5Ac(a2-3)Gal(b1-4)[Fuc(a1-3)]GlcNAc6S
# Procedure, shortened: as §1
# [14] = target: Neu5Ac(a2-3)Gal6S(b1-4)GlcNAc
# Procedure, shortened: as §1
# [15] = target: Neu5Ac(a2-3)Gal6S(b1-4)[Fuc(a1-3)]GlcNAc
# Procedure, shortened: as §1
# Neu5Ac(a2-3)GalNAc = target: Neu5Ac(a2-3)GalNAc
# Procedure, shortened: as §1
# [16] = target: Neu5Ac(a2-3)GalNAc(b1-4)GlcNAc
# Procedure, shortened: as §1
# [17] = target: Neu5Ac(a2-3)[GalNAc(b1-4)]Gal(b1-4)Glc
# Procedure, shortened: as §1
# [18] = target: Neu5Ac(a2-3)[GalNAc(b1-4)]Gal(b1-4)GlcNAc
# Procedure, shortened: as §1
# [19] = target: Neu5Ac(a2-3)[GalNAc(b1-4)]Gal(b1-4)GlcNAc(b1-3)GalNAc
# Procedure, shortened: as §1
# [20] = target: Neu5Ac(a2-3)[Neu5Ac(a2-6)]GalNAc
# Procedure, shortened: as §1
# Neu5Ac(a2-6)Gal = target: Neu5Ac(a2-6)Gal
# Procedure, shortened: as §1
# [21] = target: Neu5Ac(a2-6)Gal(b1-3)GlcNAc(b1-3)[Gal(b1-4)GlcNAc(b1-6)]Gal(b1-4)Glc
# Procedure, shortened: as §1
# Neu5Ac(a2-6)Gal(b1-4)Glc = target: Neu5Ac(a2-6)Gal(b1-4)Glc
# Procedure, shortened: as §1
# [22] = target: Neu5Ac(a2-6)Gal(b1-4)GlcNAc
# Procedure, shortened: as §1
# [23] = target: Neu5Ac(a2-6)Gal(b1-4)GlcNAc(b1-2)Man
# Procedure, shortened: as §1
# [24] = target: Neu5Ac(a2-6)Gal(b1-4)GlcNAc(b1-2)Man(a1-3)Man(b1-4)GlcNAc(b1-4)GlcNAc
# Procedure, shortened: as §1
# [25] = target: Neu5Ac(a2-6)Gal(b1-4)GlcNAc(b1-2)Man(a1-3)[Gal(b1-4)GlcNAc(b1-2)Man(a1-6)]Man(b1-4)GlcNAc(b1-4)GlcNAc
# Procedure, shortened: as §1
# [26] = target: Neu5Ac(a2-6)Gal(b1-4)GlcNAc(b1-2)Man(a1-3)[GlcNAc(b1-2)Man(a1-6)]Man(b1-4)GlcNAc(b1-4)GlcNAc
# Procedure, shortened: as §1
# [27] = target: Neu5Ac(a2-6)Gal(b1-4)GlcNAc(b1-2)Man(a1-3)[GlcNAc(b1-4)][Neu5Ac(a2-6)Gal(b1-4)GlcNAc(b1-2)Man(a1-6)]Man(b1-4)GlcNAc(b1-4)GlcNAc
# Procedure, shortened: as §1
# [28] = target: Neu5Ac(a2-6)Gal(b1-4)GlcNAc(b1-2)Man(a1-3)[Man(a1-6)]Man(b1-4)GlcNAc(b1-4)GlcNAc
# Procedure, shortened: as §1
# [29] = target: Neu5Ac(a2-6)Gal(b1-4)GlcNAc(b1-2)Man(a1-3)[Neu5Ac(a2-3)Gal(b1-4)GlcNAc(b1-2)Man(a1-6)]Man(b1-4)GlcNAc(b1-4)GlcNAc
# Procedure, shortened: as §1
# [30] = target: Neu5Ac(a2-6)Gal(b1-4)GlcNAc(b1-2)Man(a1-3)[Neu5Ac(a2-6)Gal(b1-4)GlcNAc(b1-2)Man(a1-6)]Man(b1-4)GlcNAc(b1-4)GlcNAc
# Procedure, shortened: as §1
# [31] = target: Neu5Ac(a2-6)Gal(b1-4)GlcNAc(b1-2)Man(a1-3)[Neu5Ac(a2-6)Gal(b1-4)GlcNAc(b1-2)Man(a1-6)]Man(b1-4)GlcNAc(b1-4)[Fuc(a1-6)]GlcNAc
# Procedure, shortened: as §1
# [32] = target: Neu5Ac(a2-6)Gal(b1-4)GlcNAc(b1-2)Man(a1-6)Man(b1-4)GlcNAc(b1-4)GlcNAc
# Procedure, shortened: as §1
# [33] = target: Neu5Ac(a2-6)Gal(b1-4)GlcNAc(b1-2)Man(a1-6)[Gal(b1-4)GlcNAc(b1-2)Man(a1-3)]Man(b1-4)GlcNAc(b1-4)GlcNAc
# Procedure, shortened: as §1
# [34] = target: Neu5Ac(a2-6)Gal(b1-4)GlcNAc(b1-2)Man(a1-6)[GlcNAc(b1-2)Man(a1-3)]Man(b1-4)GlcNAc(b1-4)GlcNAc
# Procedure, shortened: as §1
# [35] = target: Neu5Ac(a2-6)Gal(b1-4)GlcNAc(b1-2)Man(a1-6)[Man(a1-3)]Man(b1-4)GlcNAc(b1-4)GlcNAc
# Procedure, shortened: as §1
# [36] = target: Neu5Ac(a2-6)Gal(b1-4)GlcNAc(b1-2)[Neu5Ac(a2-6)Gal(b1-4)GlcNAc(b1-4)]Man(a1-3)[GlcNAc(b1-4)][Neu5Ac(a2-6)Gal(b1-4)GlcNAc(b1-2)[Neu5Ac(a2-6)Gal(b1-4)GlcNAc(b1-6)]Man(a1-6)]Man(b1-4)GlcNAc(b1-4)GlcNAc
# Procedure, shortened: as §1
# [37] = target: Neu5Ac(a2-6)Gal(b1-4)GlcNAc(b1-2)[Neu5Ac(a2-6)Gal(b1-4)GlcNAc(b1-4)]Man(a1-3)[GlcNAc(b1-4)][Neu5Ac(a2-6)Gal(b1-4)GlcNAc(b1-4)Man(a1-6)]Man(b1-4)GlcNAc(b1-4)GlcNAc
# Procedure, shortened: as §1
# [38] = target: Neu5Ac(a2-6)Gal(b1-4)GlcNAc(b1-2)[Neu5Ac(a2-6)Gal(b1-4)GlcNAc(b1-6)]Man(a1-6)[Neu5Ac(a2-6)Gal(b1-4)GlcNAc(b1-2)Man(a1-3)][GlcNAc(b1-4)]Man(b1-4)GlcNAc(b1-4)GlcNAc
# Procedure, shortened: as §1
# [39] = target: Neu5Ac(a2-6)Gal(b1-4)GlcNAc(b1-3)Gal(b1-3)GlcNAc
# Procedure, shortened: as §1
# [40] = target: Neu5Ac(a2-6)Gal(b1-4)GlcNAc(b1-3)Gal(b1-4)GlcNAc
# Procedure, shortened: as §1
# [41] = target: Neu5Ac(a2-6)Gal(b1-4)GlcNAc(b1-3)Gal(b1-4)GlcNAc(b1-2)Man(a1-3)[Neu5Ac(a2-6)Gal(b1-4)GlcNAc(b1-3)Gal(b1-4)GlcNAc(b1-2)Man(a1-6)]GalNAc
# Procedure, shortened: as §1
# [42] = target: Neu5Ac(a2-6)Gal(b1-4)GlcNAc(b1-3)Gal(b1-4)GlcNAc(b1-3)Gal(b1-4)GlcNAc
# Procedure, shortened: as §1
# [43] = target: Neu5Ac(a2-6)Gal(b1-4)GlcNAc(b1-3)Gal(b1-4)GlcNAc(b1-3)Gal(b1-4)GlcNAc(b1-2)Man(a1-3)[Neu5Ac(a2-6)Gal(b1-4)GlcNAc(b1-3)Gal(b1-4)GlcNAc(b1-3)Gal(b1-4)GlcNAc(b1-2)Man(a1-6)]GalNAc
# Procedure, shortened: as §1
binder,measurement,setting,value
BT3172pd (Bacteroides thetaiotaomicron) (protein) MLPLRAEHYYYKQISLKEGLPSNVRCILRDEQGFIWIGTKAGLGKFDGHQLKRYKHQANDPHSLLHNLIYQIAEDKQHNIWILTEKGIARYQQQSNNFTFPTDEEGNYITAYSFCLVPDGILFGGKDRIYKYSYKDSSLRLLQYFNANSFKITALSVWDSKTLLCCSRWTGLYLVDLQTGEHRRPPFDCGPEITSMITDSKNRIWIAPYSGGLRCYSRDGKLSASYTTHNSSLSNDIVLSLAEREEQLWIGTDGGGINILHPETGEISQLEYIPGRENYSLPANSILCLHNDYNNNVWAGSTCNGLISIREVSMKTYTDVVPGNDRGLSNGTVRSLYRQSPDSIWIGTDGGGINLFSPHTEKFTHYSSTWGDKVAFISGFTPGKLLISLFSKGVFVFNPATGEKQPFTIIDKETTTRLCNRGKSVNLYQNTPNTVLFLGDHIYQYHLKEKKFSTITEEEGKDIVGTLVPFDHQENLTYINDIKHIYELDDQTSRLKTVFECYTDTVISSVSHDEQGHFWIGSNFGLIHYDPVLKSRTLVPTNLFTEINMVLCDQKGKVWIGVDNMLFAYFIKEQKFVLFGESNGAIQNEYLPNARLVNEQGDAYIGGVKGMLRIDGQLLLNTSEMPELQLLDITINGESANHEWYNHPAKISVPWNSNISIRIMSREEDIFRQKIYRYQIEGLNNEYTESYNPELVIRSLLPGSYRIMASCTAKDGSWIPDQQVLELTVLPPWYRTHHHHHH,glycan array binding signal (z-score),[1],-1.25
same,glycan array binding signal (z-score),[2],-0.43
same,glycan array binding signal (z-score),[3],-0.567
same,glycan array binding signal (z-score),[4],2.43
same,glycan array binding signal (z-score),[5],-0.087
same,glycan array binding signal (z-score),[6],-0.094
same,glycan array binding signal (z-score),[7],-0.647
same,glycan array binding signal (z-score),[8],-0.529
same,glycan array binding signal (z-score),[9],-0.582
same,glycan array binding signal (z-score),[10],-0.303
same,glycan array binding signal (z-score),[11],0.792
same,glycan array binding signal (z-score),[12],0.699
same,glycan array binding signal (z-score),[13],0.417
same,glycan array binding signal (z-score),[14],0.228
same,glycan array binding signal (z-score),[15],0.575
same,glycan array binding signal (z-score),Neu5Ac(a2-3)GalNAc,-0.281
same,glycan array binding signal (z-score),[16],-0.423
same,glycan array binding signal (z-score),[17],-0.631
same,glycan array binding signal (z-score),[18],-0.192
same,glycan array binding signal (z-score),[19],-0.508
same,glycan array binding signal (z-score),[20],-0.249
same,glycan array binding signal (z-score),Neu5Ac(a2-6)Gal,4.96
same,glycan array binding signal (z-score),[21],-0.278
same,glycan array binding signal (z-score),Neu5Ac(a2-6)Gal(b1-4)Glc,0.862
same,glycan array binding signal (z-score),[22],-0.069
same,glycan array binding signal (z-score),[23],0.901
same,glycan array binding signal (z-score),[24],0.866
same,glycan array binding signal (z-score),[25],-0.333
same,glycan array binding signal (z-score),[26],-0.771
same,glycan array binding signal (z-score),[27],-0.461
same,glycan array binding signal (z-score),[28],-0.184
same,glycan array binding signal (z-score),[29],-0.143
same,glycan array binding signal (z-score),[30],-0.353
same,glycan array binding signal (z-score),[31],-0.072
same,glycan array binding signal (z-score),[32],0.057
same,glycan array binding signal (z-score),[33],0.765
same,glycan array binding signal (z-score),[34],-0.213
same,glycan array binding signal (z-score),[35],-0.052
same,glycan array binding signal (z-score),[36],-0.422
same,glycan array binding signal (z-score),[37],-0.545
same,glycan array binding signal (z-score),[38],-0.466
same,glycan array binding signal (z-score),[39],-0.335
same,glycan array binding signal (z-score),[40],-0.612
same,glycan array binding signal (z-score),[41],-0.692
same,glycan array binding signal (z-score),[42],-0.644
same,glycan array binding signal (z-score),[43],-0.613

# Reference: the supplement of paper PMC8728848
